The target in assay [1] is MLH1 (endogenous, human) (human (endogenous in iPSCs, lymphoblastoid cells, U2OS, HEK293T, MSNs, HeLa)) (UniProt P40692). Put plainly: co-IP; peptide competition: synthetic FAN1 60-mer peptide (15 μM in Figure 4H) added to HeLa nuclear extract before the anti-MLH1 IP; read-out MSH3 in the IP; only the binder purified.
The target is the same in assay [2]. Put plainly: co-IP; endogenous proteins in extracts of HD iPSCs (125 CAG); FAN1 sheep polyclonal or MLH1 monoclonal antibody with protein G magnetic beads; IP buffer 20 mM Tris pH 7.4, 150 mM NaCl, 1 mM EDTA, 1% Triton X-100, Benzonase.
The target of assay [3] is myc-tagged FAN1^FL (human) (UniProt Q9Y2M0). The assay can be described thus: cross-linking; xIP-MS: myc-FAN1 from HEK293T lysate on anti-c-myc magnetic beads, on-bead cross-linking with 1 mM BS3 d0/d12, 30 min, 37°C, mass spectrometry (xQuest/xProphet).
Assay [4] deals with FAN1 (endogenous, human) (human (endogenous in HD iPSCs, lymphoblastoid cells, MSNs)) (UniProt Q9Y2M0). Put plainly: cross-linking; xIP-MS: endogenous FAN1 from lymphoblastoid cell lysate with sheep FAN1 antibody and protein G magnetic beads, on-bead cross-linking with 1 mM BS3 d0/d12, 30 min, 37°C, mass spectrometry (xQuest/xProphet).
Assay [5] addresses MSH3 (endogenous, human) (human (endogenous in iPSCs, U2OS, MSNs, HeLa)) (UniProt P20585). Put plainly: co-IP; MSH3 antibody with protein G magnetic beads on extracts of U2OS FAN1−/− and FAN1^FL cells; IP buffer with Benzonase.
In assay [6] the target is MLH1 (endogenous, human) (human (endogenous in iPSCs, lymphoblastoid cells, U2OS, HEK293T, MSNs, HeLa)) (UniProt P40692). Put plainly: co-IP; MLH1 antibody with protein G magnetic beads on extracts of U2OS cells (FAN1−/−, FAN1^FL, FAN1^1–349); IP buffer with Benzonase.
The target of assay [7] is T1, FAN1 (endogenous, mouse) (mouse (endogenous in cortex of zQ175 and R6/2 mice)) (UniProt Q69ZT1).
T1 sequence: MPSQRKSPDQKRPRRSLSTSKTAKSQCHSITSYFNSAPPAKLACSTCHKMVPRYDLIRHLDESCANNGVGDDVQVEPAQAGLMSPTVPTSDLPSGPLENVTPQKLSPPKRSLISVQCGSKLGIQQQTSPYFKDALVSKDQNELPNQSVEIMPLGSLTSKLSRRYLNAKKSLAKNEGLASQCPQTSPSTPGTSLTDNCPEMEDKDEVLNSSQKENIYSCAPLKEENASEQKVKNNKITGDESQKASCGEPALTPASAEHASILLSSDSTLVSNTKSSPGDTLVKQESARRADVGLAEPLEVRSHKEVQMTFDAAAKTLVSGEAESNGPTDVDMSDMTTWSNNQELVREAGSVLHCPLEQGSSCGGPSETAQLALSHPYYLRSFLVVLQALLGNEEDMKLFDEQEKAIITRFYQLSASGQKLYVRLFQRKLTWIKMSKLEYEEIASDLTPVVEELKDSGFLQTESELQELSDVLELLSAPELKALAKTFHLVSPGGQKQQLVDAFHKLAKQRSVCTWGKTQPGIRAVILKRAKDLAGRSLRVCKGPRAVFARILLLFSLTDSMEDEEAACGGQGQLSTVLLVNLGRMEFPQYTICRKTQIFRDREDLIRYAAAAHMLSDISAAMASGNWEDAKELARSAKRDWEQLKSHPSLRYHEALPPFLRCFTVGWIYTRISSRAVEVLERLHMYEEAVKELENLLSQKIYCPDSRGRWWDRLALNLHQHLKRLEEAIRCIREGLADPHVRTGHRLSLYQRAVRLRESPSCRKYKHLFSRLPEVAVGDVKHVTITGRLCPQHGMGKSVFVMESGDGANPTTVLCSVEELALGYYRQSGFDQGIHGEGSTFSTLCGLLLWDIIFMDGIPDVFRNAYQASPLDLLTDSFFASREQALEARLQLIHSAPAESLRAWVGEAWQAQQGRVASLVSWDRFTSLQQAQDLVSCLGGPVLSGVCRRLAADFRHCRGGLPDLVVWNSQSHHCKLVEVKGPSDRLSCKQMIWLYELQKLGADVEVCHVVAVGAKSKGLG
Put plainly: co-IP; endogenous proteins in cortical extracts of zQ175 (6 months) and R6/2 (12 weeks) mice; homogenized in modified RIPA buffer with Benzonase, diluted 1 to 10 with IP buffer.

Chains of the proteins cited; added tags and fusions are not shown. Lines headed by an entry give the natural chain unless they say otherwise; changes in a name come on top.
UniProt P40692: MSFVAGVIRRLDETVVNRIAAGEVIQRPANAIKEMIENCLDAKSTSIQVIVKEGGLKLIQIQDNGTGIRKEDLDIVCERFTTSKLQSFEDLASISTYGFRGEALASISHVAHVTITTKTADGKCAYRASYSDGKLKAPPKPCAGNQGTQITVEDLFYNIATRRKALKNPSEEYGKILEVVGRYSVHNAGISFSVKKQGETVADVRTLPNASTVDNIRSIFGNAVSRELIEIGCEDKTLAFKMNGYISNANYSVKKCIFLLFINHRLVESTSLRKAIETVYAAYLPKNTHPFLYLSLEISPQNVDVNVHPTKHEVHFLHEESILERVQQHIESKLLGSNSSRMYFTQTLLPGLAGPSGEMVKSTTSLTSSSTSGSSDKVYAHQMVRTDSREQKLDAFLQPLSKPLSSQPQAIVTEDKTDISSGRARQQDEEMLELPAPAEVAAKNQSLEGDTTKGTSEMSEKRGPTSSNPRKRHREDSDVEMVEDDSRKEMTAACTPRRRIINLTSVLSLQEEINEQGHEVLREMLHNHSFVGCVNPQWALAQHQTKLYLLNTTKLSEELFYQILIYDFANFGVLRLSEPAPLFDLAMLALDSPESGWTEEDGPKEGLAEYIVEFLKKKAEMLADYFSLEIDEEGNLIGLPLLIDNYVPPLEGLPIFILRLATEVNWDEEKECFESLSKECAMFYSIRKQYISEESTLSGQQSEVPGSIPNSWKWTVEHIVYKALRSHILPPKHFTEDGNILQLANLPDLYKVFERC
UniProt Q9Y2M0: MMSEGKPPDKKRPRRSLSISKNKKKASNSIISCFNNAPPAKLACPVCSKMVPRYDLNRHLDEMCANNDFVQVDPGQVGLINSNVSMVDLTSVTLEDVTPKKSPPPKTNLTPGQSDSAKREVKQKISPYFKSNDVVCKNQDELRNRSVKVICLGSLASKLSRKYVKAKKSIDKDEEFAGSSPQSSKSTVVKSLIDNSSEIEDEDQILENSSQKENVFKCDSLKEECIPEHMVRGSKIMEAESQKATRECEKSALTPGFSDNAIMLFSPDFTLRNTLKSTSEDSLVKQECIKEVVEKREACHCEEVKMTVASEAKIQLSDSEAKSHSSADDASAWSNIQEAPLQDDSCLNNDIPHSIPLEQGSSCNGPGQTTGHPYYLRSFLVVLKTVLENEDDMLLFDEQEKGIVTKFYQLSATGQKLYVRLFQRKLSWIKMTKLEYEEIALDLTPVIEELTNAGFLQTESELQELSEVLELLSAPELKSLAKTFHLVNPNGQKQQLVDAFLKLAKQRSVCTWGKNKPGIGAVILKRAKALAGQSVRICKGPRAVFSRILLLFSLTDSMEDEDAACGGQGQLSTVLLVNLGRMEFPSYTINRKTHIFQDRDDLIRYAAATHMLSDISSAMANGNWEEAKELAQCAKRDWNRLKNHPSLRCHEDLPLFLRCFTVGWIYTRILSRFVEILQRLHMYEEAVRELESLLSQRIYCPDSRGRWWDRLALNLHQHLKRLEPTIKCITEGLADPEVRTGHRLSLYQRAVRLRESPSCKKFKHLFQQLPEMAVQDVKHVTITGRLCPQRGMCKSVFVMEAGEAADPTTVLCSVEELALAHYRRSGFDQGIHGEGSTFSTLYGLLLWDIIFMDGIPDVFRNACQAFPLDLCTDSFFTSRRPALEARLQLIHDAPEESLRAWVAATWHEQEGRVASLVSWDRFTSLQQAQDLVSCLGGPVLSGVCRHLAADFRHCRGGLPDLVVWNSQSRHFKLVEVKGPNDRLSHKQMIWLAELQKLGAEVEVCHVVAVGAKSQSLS
UniProt P20585: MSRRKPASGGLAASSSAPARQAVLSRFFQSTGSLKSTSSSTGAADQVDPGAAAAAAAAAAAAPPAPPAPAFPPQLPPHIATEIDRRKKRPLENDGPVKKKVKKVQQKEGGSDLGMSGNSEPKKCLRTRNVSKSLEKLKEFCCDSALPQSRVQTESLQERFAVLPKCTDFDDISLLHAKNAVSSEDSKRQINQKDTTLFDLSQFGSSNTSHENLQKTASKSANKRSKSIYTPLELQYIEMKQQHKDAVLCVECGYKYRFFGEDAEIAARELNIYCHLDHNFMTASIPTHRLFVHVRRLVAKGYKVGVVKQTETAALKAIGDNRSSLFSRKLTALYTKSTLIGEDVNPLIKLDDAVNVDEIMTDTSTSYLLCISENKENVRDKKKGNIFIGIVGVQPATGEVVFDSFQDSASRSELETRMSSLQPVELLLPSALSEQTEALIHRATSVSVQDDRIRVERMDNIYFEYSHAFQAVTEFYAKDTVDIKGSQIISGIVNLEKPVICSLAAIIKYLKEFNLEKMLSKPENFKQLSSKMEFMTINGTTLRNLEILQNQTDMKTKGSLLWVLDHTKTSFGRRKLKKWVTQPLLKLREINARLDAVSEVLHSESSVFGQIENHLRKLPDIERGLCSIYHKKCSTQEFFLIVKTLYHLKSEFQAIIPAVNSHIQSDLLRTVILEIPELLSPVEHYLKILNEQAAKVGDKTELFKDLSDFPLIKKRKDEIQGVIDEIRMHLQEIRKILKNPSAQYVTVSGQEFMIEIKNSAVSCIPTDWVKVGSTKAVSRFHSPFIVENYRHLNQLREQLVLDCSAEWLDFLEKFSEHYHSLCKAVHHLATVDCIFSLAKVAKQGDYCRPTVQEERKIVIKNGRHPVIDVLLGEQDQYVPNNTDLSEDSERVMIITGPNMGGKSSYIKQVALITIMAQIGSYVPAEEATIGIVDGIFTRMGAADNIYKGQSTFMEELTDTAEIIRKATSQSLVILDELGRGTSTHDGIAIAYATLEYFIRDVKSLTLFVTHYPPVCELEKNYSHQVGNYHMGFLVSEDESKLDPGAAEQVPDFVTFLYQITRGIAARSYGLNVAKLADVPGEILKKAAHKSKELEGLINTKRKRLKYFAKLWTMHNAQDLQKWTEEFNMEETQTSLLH
UniProt Q9NVI1: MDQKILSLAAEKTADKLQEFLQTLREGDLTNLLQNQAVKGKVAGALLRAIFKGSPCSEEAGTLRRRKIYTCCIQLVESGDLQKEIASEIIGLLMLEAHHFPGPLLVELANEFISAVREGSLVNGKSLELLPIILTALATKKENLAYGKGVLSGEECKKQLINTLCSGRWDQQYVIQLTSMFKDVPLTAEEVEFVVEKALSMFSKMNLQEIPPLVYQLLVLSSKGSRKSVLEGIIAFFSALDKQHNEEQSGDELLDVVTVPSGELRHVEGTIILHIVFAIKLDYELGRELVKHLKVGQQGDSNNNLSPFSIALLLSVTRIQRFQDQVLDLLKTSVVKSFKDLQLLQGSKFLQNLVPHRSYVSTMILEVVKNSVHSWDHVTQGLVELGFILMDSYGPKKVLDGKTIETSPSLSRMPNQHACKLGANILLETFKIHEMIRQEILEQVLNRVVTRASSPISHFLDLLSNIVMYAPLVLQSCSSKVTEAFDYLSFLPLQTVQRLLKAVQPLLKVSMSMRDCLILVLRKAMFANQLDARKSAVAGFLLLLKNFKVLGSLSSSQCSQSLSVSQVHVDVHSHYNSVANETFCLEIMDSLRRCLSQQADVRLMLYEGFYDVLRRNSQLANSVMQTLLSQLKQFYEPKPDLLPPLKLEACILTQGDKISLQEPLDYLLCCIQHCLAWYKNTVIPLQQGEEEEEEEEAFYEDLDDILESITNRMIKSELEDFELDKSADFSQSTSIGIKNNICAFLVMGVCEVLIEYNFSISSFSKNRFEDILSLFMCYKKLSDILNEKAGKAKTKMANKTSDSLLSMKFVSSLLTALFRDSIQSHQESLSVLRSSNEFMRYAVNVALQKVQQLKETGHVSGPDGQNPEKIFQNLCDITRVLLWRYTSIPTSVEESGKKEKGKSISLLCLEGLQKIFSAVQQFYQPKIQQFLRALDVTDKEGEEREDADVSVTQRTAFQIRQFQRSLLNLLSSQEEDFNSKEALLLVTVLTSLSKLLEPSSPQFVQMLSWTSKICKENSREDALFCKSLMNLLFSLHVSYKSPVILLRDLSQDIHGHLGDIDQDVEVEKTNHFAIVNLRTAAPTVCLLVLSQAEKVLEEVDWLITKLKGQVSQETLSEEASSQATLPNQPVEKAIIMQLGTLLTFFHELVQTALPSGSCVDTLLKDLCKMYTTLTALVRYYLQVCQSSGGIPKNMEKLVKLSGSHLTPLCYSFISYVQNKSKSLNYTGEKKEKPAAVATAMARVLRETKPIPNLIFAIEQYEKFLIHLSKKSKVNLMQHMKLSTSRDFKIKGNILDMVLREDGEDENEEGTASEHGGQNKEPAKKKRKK
UniProt Q9JK91: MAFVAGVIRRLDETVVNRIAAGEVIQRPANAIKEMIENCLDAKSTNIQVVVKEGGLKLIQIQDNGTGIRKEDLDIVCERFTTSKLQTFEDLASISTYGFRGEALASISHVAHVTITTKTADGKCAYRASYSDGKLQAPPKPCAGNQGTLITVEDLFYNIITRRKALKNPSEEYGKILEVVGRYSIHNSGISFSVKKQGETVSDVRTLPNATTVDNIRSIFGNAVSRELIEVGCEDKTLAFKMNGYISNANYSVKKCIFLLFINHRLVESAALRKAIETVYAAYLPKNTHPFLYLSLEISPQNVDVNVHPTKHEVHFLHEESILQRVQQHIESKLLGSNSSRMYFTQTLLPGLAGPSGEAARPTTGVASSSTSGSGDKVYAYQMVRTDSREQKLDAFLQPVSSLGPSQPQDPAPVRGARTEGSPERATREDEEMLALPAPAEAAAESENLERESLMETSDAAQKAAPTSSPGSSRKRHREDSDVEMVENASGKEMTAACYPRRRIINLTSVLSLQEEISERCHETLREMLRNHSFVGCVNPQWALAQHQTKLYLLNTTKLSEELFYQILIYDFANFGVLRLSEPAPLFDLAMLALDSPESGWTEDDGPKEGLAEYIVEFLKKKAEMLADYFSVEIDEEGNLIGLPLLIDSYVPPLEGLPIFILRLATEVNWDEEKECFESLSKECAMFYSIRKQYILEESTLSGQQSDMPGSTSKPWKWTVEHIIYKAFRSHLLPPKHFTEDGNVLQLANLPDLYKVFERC
UniProt P52701: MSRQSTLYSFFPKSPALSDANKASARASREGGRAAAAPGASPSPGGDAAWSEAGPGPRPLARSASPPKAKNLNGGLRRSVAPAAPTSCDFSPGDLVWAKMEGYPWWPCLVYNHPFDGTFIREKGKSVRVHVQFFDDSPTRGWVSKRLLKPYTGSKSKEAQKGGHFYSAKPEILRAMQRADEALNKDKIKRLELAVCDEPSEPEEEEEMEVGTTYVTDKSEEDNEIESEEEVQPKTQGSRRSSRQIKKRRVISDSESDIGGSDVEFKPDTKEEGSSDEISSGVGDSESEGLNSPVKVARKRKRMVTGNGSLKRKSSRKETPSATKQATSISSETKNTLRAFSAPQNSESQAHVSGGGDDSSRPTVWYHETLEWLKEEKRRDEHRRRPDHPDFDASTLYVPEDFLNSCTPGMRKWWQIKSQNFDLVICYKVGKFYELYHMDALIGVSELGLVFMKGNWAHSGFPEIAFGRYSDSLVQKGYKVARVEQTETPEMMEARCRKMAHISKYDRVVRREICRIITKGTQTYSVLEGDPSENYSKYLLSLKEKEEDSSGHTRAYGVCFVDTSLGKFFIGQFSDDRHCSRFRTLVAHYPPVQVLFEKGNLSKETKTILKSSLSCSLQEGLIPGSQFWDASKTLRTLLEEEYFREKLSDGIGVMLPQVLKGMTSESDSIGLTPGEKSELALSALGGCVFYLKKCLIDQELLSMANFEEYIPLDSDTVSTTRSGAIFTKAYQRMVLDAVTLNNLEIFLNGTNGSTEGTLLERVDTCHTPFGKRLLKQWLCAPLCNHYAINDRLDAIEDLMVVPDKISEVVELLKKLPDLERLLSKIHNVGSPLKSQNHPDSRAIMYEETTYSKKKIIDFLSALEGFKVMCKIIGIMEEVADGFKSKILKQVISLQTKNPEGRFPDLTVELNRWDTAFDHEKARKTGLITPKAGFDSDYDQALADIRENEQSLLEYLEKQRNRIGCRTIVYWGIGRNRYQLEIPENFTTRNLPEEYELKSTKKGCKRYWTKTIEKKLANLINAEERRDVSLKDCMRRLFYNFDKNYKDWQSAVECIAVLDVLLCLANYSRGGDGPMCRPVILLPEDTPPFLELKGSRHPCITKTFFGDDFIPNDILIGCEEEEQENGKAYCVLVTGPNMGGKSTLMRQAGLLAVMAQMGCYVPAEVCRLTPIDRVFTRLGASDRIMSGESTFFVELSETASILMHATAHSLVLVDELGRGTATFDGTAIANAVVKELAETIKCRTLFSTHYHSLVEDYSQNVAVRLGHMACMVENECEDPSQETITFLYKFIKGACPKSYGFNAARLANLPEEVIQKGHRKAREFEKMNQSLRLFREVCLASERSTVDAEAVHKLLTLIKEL

Assay [8] has as its target GFP-FAN1, full-length FAN1 (FAN1^FL) (human) (UniProt Q9Y2M0). The assay can be described thus: co-IP; GFP-Trap beads on extracts of U2OS cells expressing GFP-FAN1 constructs; endogenous partners detected by blot; IP buffer 20 mM Tris pH 7.4, 150 mM NaCl, 1 mM EDTA, 1% Triton X-100, Benzonase.
Assay [9] concerns the target FAN1 (endogenous, human) (human (endogenous in HD iPSCs, lymphoblastoid cells, MSNs)) (UniProt Q9Y2M0). The assay can be described thus: co-IP; endogenous proteins in extracts of HD iPSCs (125 CAG); FAN1 sheep polyclonal or MLH1 monoclonal antibody with protein G magnetic beads; IP buffer 20 mM Tris pH 7.4, 150 mM NaCl, 1 mM EDTA, 1% Triton X-100, Benzonase.

The results in this text go back to paper PMC8424649.

These are yes or no findings as the source states them, for the method shown. In cells and extracts the contact can be indirect. Some entries that bind do so weakly or less than the wild type.

With “FAN1 60-mer wild-type peptide (amino acids 118-177) (from UniProt Q9Y2M0 118-177)”, the binding entry in [1] is given as “binds”.

For the substance “FAN1 (endogenous, human) (from UniProt Q9Y2M0 1-1017)”, in assay [2], the binding result is “binds”.

As for “FANCI (endogenous, human) (from UniProt Q9NVI1 1-1328)”, the binding entry in assay [3] and in assay [4] was “binds” throughout.

On to “GFP-FAN1, full-length FAN1 (FAN1^FL) (from UniProt Q9Y2M0 1-1017)”, for which the binding entry in assay [5] is “no binding”; in [6], “binds”.

“GFP-FAN1^1–349 (from UniProt Q9Y2M0 1-349) (domain or fragment)”: in [6], the binding entry is on record as “binds”.

For the substance “MLH1 (endogenous, mouse) (from UniProt Q9JK91 1-760)”, the binding result in [7] was “binds”.

On to “MSH3 (endogenous, human) (from UniProt P20585 1-1137)”, for which the binding result in assay [8] and in assay [9] was “no binding” each time.

As for “MSH6 (endogenous, human) (from UniProt P52701 1-1360)”, in assay [8], the binding result is given as “no binding”.
